Our source for the binding signal (RPM ratio (pull-down/input)) values is publication PMC12820563.

The list shows a part of the results. The list includes weakly bound sequences.

This test addresses T1, MBP-FoxP3dN (UniProt Q99JB6).
T1 sequence: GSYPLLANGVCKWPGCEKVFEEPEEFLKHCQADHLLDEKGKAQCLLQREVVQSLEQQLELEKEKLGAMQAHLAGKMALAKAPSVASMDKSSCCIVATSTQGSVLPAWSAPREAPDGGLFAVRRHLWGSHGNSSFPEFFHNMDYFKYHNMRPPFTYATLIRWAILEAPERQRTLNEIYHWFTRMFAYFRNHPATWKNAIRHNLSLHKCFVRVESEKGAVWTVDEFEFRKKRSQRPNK
The test can be described thus: PD-seq (MBP pull-down with sequencing). Particulars: 20 mM Tris-HCl pH 7.5, 100 mM NaCl, 1.5 mM MgCl2, 0.4 uM protein, 0.1 uM dsDNA library, 30 min, room temperature, amylose pull-down; high values mean tight binding; double strand, one strand shown.
Consider “GATGATTGTTCTCCCAGCTGATGAATTTGCAGGATCGAGTAAACAAATTTTCCTAATCTTTCTGTTCAAGCGCCATCTAC”, for which the binding signal (RPM ratio (pull-down/input)) was determined as 0.385.

As to “GATGATTGTTCTCCCAGCTGATGAATTGTTTGGTTCGAGTAAACAAATTTTCCTAATCTTTCTGTTCAAGCGCCATCTAC”, the binding signal (RPM ratio (pull-down/input)) was 4.48. Turning to “GATGATTGTTCTCCCAGCTGATGAATTACCACCGTCGAGTAAACAAATTTTCCTAATCTTTCTGTTCAAGCGCCATCTAC”, the binding signal (RPM ratio (pull-down/input)) is 0.348. As to “GATGATTGTTCTCCCAGCTGATGAATTAGTAGGGTCGAGTAAACAAATTTTCCTAATCTTTCTGTTCAAGCGCCATCTAC”, the binding signal (RPM ratio (pull-down/input)) was determined as 1.4. For “GATGATTGTTCTCCCAGCTGATGAATTCACGGATTCGAGTAAACAAATTTTCCTAATCTTTCTGTTCAAGCGCCATCTAC”, the binding signal (RPM ratio (pull-down/input)) turned out to be 0.229. Regarding “GATGATTGTTCTCCCAGCTGATGAATTACGAGTGTCGAGTAAACAAATTTTCCTAATCTTTCTGTTCAAGCGCCATCTAC”, the binding signal (RPM ratio (pull-down/input)) was 1.13. The same measure for “GATGATTGTTCTCCCAGCTGATGAATTTTGCGGATCGAGTAAACAAATTTTCCTAATCTTTCTGTTCAAGCGCCATCTAC”: 0.597. For the sequence “GATGATTGTTCTCCCAGCTGATGAATTGACCTCCTCGAGTAAACAAATTTTCCTAATCTTTCTGTTCAAGCGCCATCTAC”, the binding signal (RPM ratio (pull-down/input)) was found to be 0.31. For the sequence “GATGATTGTTCTCCCAGCTGATGAATTGGACCGCTCGAGTAAACAAATTTTCCTAATCTTTCTGTTCAAGCGCCATCTAC”, the binding signal (RPM ratio (pull-down/input)) stood at 0.25. In the case of “GATGATTGTTCTCCCAGCTGATGAATTAAATCCGTCGAGTAAACAAATTTTCCTAATCTTTCTGTTCAAGCGCCATCTAC”, the binding signal (RPM ratio (pull-down/input)) stood at 0.199. The result for “GATGATTGTTCTCCCAGCTGATGAATTTCGTGCTTCGAGTAAACAAATTTTCCTAATCTTTCTGTTCAAGCGCCATCTAC” reads 0.623.

On to “GATGATTGTTCTCCCAGCTGATGAATTGGTTTATTCGAGTAAACAAATTTTCCTAATCTTTCTGTTCAAGCGCCATCTAC”, for which the binding signal (RPM ratio (pull-down/input)) came out at 4.04.

As for “GATGATTGTTCTCCCAGCTGATGAATTACCCCACTCGAGTAAACAAATTTTCCTAATCTTTCTGTTCAAGCGCCATCTAC”, the binding signal (RPM ratio (pull-down/input)) worked out at 0.312.

Turning to “GATGATTGTTCTCCCAGCTGATGAATTCCTGTGATCGAGTAAACAAATTTTCCTAATCTTTCTGTTCAAGCGCCATCTAC”, the binding signal (RPM ratio (pull-down/input)) turned out to be 0.431.

As to “GATGATTGTTCTCCCAGCTGATGAATTGGCAGACTCGAGTAAACAAATTTTCCTAATCTTTCTGTTCAAGCGCCATCTAC”, the binding signal (RPM ratio (pull-down/input)) came out at 0.237. In the case of “GATGATTGTTCTCCCAGCTGATGAATTCCCGAGGTCGAGTAAACAAATTTTCCTAATCTTTCTGTTCAAGCGCCATCTAC”, the binding signal (RPM ratio (pull-down/input)) is 0.18. On to “GATGATTGTTCTCCCAGCTGATGAATTCATGTCTTCGAGTAAACAAATTTTCCTAATCTTTCTGTTCAAGCGCCATCTAC”, for which the binding signal (RPM ratio (pull-down/input)) was found to be 0.693. Regarding “GATGATTGTTCTCCCAGCTGATGAATTCCTATCGTCGAGTAAACAAATTTTCCTAATCTTTCTGTTCAAGCGCCATCTAC”, the binding signal (RPM ratio (pull-down/input)) turned out to be 0.382. For the sequence “GATGATTGTTCTCCCAGCTGATGAATTTGCCCATTCGAGTAAACAAATTTTCCTAATCTTTCTGTTCAAGCGCCATCTAC”, the binding signal (RPM ratio (pull-down/input)) came out at 0.615. Turning to “GATGATTGTTCTCCCAGCTGATGAATTGGTTTGGTCGAGTAAACAAATTTTCCTAATCTTTCTGTTCAAGCGCCATCTAC”, the binding signal (RPM ratio (pull-down/input)) came out at 3.6. The result for “GATGATTGTTCTCCCAGCTGATGAATTTCCCTACTCGAGTAAACAAATTTTCCTAATCTTTCTGTTCAAGCGCCATCTAC” reads 0.307; that for “GATGATTGTTCTCCCAGCTGATGAATTACGTGCCTCGAGTAAACAAATTTTCCTAATCTTTCTGTTCAAGCGCCATCTAC”, 0.855; that for “GATGATTGTTCTCCCAGCTGATGAATTAGTTCTCTCGAGTAAACAAATTTTCCTAATCTTTCTGTTCAAGCGCCATCTAC”, 0.491. For the sequence “GATGATTGTTCTCCCAGCTGATGAATTATAGCGATCGAGTAAACAAATTTTCCTAATCTTTCTGTTCAAGCGCCATCTAC”, the binding signal (RPM ratio (pull-down/input)) is 0.619.

Regarding “GATGATTGTTCTCCCAGCTGATGAATTTCCCCGGTCGAGTAAACAAATTTTCCTAATCTTTCTGTTCAAGCGCCATCTAC”, the binding signal (RPM ratio (pull-down/input)) is 0.145. The same measure for “GATGATTGTTCTCCCAGCTGATGAATTTCGCCTCTCGAGTAAACAAATTTTCCTAATCTTTCTGTTCAAGCGCCATCTAC”: 6.04.

As for “GATGATTGTTCTCCCAGCTGATGAATTGTCATACTCGAGTAAACAAATTTTCCTAATCTTTCTGTTCAAGCGCCATCTAC”, the binding signal (RPM ratio (pull-down/input)) is 0.596.

Take “GATGATTGTTCTCCCAGCTGATGAATTAGATCCCTCGAGTAAACAAATTTTCCTAATCTTTCTGTTCAAGCGCCATCTAC”: the binding signal (RPM ratio (pull-down/input)) worked out at 0.289. Take “GATGATTGTTCTCCCAGCTGATGAATTGATCTGATCGAGTAAACAAATTTTCCTAATCTTTCTGTTCAAGCGCCATCTAC”: the binding signal (RPM ratio (pull-down/input)) was determined as 0.244.

With “GATGATTGTTCTCCCAGCTGATGAATTAAGGAAGTCGAGTAAACAAATTTTCCTAATCTTTCTGTTCAAGCGCCATCTAC”, the binding signal (RPM ratio (pull-down/input)) was 0.183.

On to “GATGATTGTTCTCCCAGCTGATGAATTGAAGGTCTCGAGTAAACAAATTTTCCTAATCTTTCTGTTCAAGCGCCATCTAC”, for which the binding signal (RPM ratio (pull-down/input)) was 0.375. As for “GATGATTGTTCTCCCAGCTGATGAATTTACCGGCTCGAGTAAACAAATTTTCCTAATCTTTCTGTTCAAGCGCCATCTAC”, the binding signal (RPM ratio (pull-down/input)) turned out to be 0.3.

As for “GATGATTGTTCTCCCAGCTGATGAATTTCTCAGCTCGAGTAAACAAATTTTCCTAATCTTTCTGTTCAAGCGCCATCTAC”, the binding signal (RPM ratio (pull-down/input)) was 0.19. Turning to “GATGATTGTTCTCCCAGCTGATGAATTAGACAAGTCGAGTAAACAAATTTTCCTAATCTTTCTGTTCAAGCGCCATCTAC”, the binding signal (RPM ratio (pull-down/input)) was 0.371. “GATGATTGTTCTCCCAGCTGATGAATTTAAATATTCGAGTAAACAAATTTTCCTAATCTTTCTGTTCAAGCGCCATCTAC”: the binding signal (RPM ratio (pull-down/input)) is 0.506. Consider “GATGATTGTTCTCCCAGCTGATGAATTTTTCTAGTCGAGTAAACAAATTTTCCTAATCTTTCTGTTCAAGCGCCATCTAC”, for which the binding signal (RPM ratio (pull-down/input)) was found to be 0.195. Turning to “GATGATTGTTCTCCCAGCTGATGAATTCATAGGGTCGAGTAAACAAATTTTCCTAATCTTTCTGTTCAAGCGCCATCTAC”, the binding signal (RPM ratio (pull-down/input)) was 0.337. Take “GATGATTGTTCTCCCAGCTGATGAATTTGACACATCGAGTAAACAAATTTTCCTAATCTTTCTGTTCAAGCGCCATCTAC”: the binding signal (RPM ratio (pull-down/input)) was 0.802. The same measure for “GATGATTGTTCTCCCAGCTGATGAATTGCCATAGTCGAGTAAACAAATTTTCCTAATCTTTCTGTTCAAGCGCCATCTAC”: 0.739; for “GATGATTGTTCTCCCAGCTGATGAATTGATTACGTCGAGTAAACAAATTTTCCTAATCTTTCTGTTCAAGCGCCATCTAC”: 1.32.
